Measured values from the supplement of paper PMC7826260.
Some of the results follow. Viral Rep nickase domains cut single-stranded DNA in vitro (3 µM enzyme, 1 h, 37 °C); shown is the middle of each 90-letter strand. A value is the log2 ratio of uncut reads to the pool without enzyme; more negative means more cut, near 0 not cut, and no call is made. The scaling is to total reads, so uncut sequences can rise above 0 when many others are cut.

Test system: T1, Rep nickase domain of chickpea chlorotic dwarf virus
T1 sequence (residues 1-124, tag not shown): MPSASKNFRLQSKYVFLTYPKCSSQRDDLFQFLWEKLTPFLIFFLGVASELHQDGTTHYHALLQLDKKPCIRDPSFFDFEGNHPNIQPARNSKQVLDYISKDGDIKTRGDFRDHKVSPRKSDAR
Test: uncleaved DNA left, log2 of reads against the no-enzyme library (log2 ratio); higher = less cleavage (more negative = more Rep cleavage of the k-mer); sequences stand for … in CTCGTCCG…ACCGGAGA
Experimental: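 A pool of 90-nt single-stranded DNAs with seven random bases just before the constant AC of the nick site (name = the seven bases) was cut by 3 µM recombinant His6-SUMO-tagged Rep nickase domain (300 nM DNA, 50 mM HEPES pH 8.0, 50 mM NaCl, 1 mM MnCl2, 1 h, 37 °C, three replicates). Uncut DNA was amplified and sequenced.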

Row | Sequence | uncleaved DNA left (log2)
1 | ACCACAG | 0.305
2 | GACTTAT | -0.0436
3 | TGACCTT | 0.192
4 | GCTCACA | -0.254
5 | AAACTCT | -2.95
6 | ACAGAGT | -0.792
7 | CGTCTAG | -0.271
8 | CGCCATT | -1.07
9 | AAATGGG | -0.759
10 | GATGGGC | 1.12
11 | AGGATGC | -0.0652
12 | TGCTATG | -0.00451
13 | CTTTGGA | -0.736
14 | GGTGTAA | 0.97
15 | CCTTATT | -3.38
16 | GGCGATC | 1.09
17 | TATATTC | -0.398
18 | GGATACA | 1.18
19 | GTACGCA | 0.447
20 | AATCACA | -2.58

Row | Sequence | uncleaved DNA left (log2)
21 | CACAGTT | -0.726
22 | GGTTTGG | 0.447
23 | GTATGAA | 0.796
24 | GGGCATC | 1.92
25 | AGTCATT | -0.702
26 | GGCCTGT | 0.868
27 | TCTAAAC | -0.209
28 | AGGCAAG | -0.496
29 | CTGTCAC | -0.17
30 | TTGACCG | -0.198
31 | CAAGCAC | -0.0634
32 | GACCCGC | 1.19
33 | GTGTAGG | 1.05
34 | ATATAGG | 0.958
35 | CGGCCGA | -0.0107
36 | AGGGGTG | 0.414
37 | TACGGCG | 0.284
38 | TACATTC | -0.428
39 | GACAGGT | 0.919
40 | TATGTGG | 0.306
